# Test results: PubChem BioAssay (NCATS)
# Several values for one entry are separate records, joined by “and”; a condition that tells them apart may be missing. Equal entries are not always repeated. This list was built around the results that the source calls inconclusive (neither active nor inactive); the mix of calls is not that of the screen. For some of these results: Potencies beside an inconclusive call are fits to weak or partial responses and may not hold up. For some of these results: A note “side channel” means that the fit belongs to a control or component signal, not to the main read-out. Activity calls are given as the source filed them. Unless noted, the call rests on the fitted dose curve; in most records, active means well fitted curve in the direction sought with a large enough effect; inconclusive means small, poorly fitted or top-dose-only effect, or another doubt; inactive means no such curve, though single readings can be large; an effect the other way counts as inactive or inconclusive.
# What was measured:
# [1] = Cell Viability - SK-N-SH (AID 435; calls by dose curve;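 further: potency means the concentration at half of the fitted maximal effect; compound exposure lasted 40 h at 37 °C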); details: SK-N-SH neuroblastoma cell viability qHTS
# Outline: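 SK-N-SH neuroblastoma cells (1500/well) treated 40 h at 37 °C in complete medium; viability read as cellular ATP by CellTiter-Glo luminescence. Normalized to DMSO and 100 uM tamoxifen; AC50 from Hill fits of qHTS concentration-response.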
# [2] = Cell Viability - NIH 3T3 (AID 541); details: NIH 3T3 cell viability, qHTS; activity change, negative = cytotoxicity: at 92.2 µM (top of the series);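 further: plate controls were DMSO alone for no effect and tamoxifen positive control for full effect; nearly all actives have a fitted effect of over 25% in size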
# Outline: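 AC50 values reflect concentration-dependent loss of intracellular ATP in NIH 3T3 cells after 40 hr treatment in complete culture medium, quantified by luciferase-based luminescence.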
# [3] = Cell Viability - LYMP2-020 (AID 986); details: activity change, negative = viability loss: at 92.2 µM (top of the series);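 further: plate controls were DMSO only for no effect and tetraoctylammonium bromide at 92 µM for full effect; nearly all actives have a fitted effect of over 55% in size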
# Outline: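 Acute cytotoxicity in a human lymphoblastoid line is scored as a concentration-dependent fall in cellular ATP after 24 hr at 37 C in complete medium. The positive control is tetraoctylammonium bromide, and potency is given as Hill-fit AC50.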
# [4] = biological target: Glucocorticoid receptor (Homo sapiens) (UniProt P04150); experiment: qHTS assay for small molecule antagonists of glucocorticoid receptor signaling (AID 588533; active means well fitted inhibition curve with a large enough effect in the signal ratio, with a control signal flat, not every such curve was filed as active; inconclusive means small, poorly fitted or top-dose-only effect, or effect the other way, or a change in a side signal; the % refers to the signal ratio;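 further: cells stimulated with 2 nM dexamethasone as agonist; potency means the concentration at half of the fitted maximal effect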); details: HeLa MMTV-bla, GRE beta-lactamase ratio, antagonist mode, 18 h; activity change, negative = inhibition: at 76.8 µM (top of the series)
# [5] = biological target: Peroxisome proliferator-activated receptor delta (Homo sapiens) (UniProt Q03181); experiment: qHTS assay for small molecule antagonists of peroxisome proliferator-activated receptor delta signaling (AID 588535; active means well fitted inhibition curve with a large enough effect in the signal ratio, with a control signal flat, not every such curve was filed as active; inconclusive means small, poorly fitted or top-dose-only effect, or effect the other way, or a change in a side signal; inactive means no such curve, though single readings can be large or run the other way; the % refers to the signal ratio); details: HEK293T PPARd-UAS-bla, beta-lactamase FRET ratio, 18 h; activity change, negative = inhibition: at 76.7 µM (top of the series)
# Outline: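 Cell-based beta-lactamase assay in antagonist mode: 4000 HEK293T PPAR-delta-UAS-bla cells per well, 5 hr preincubation then 18 hr compound incubation at 37 C. IC50 obtained by Hill equation fitting.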
# [6] = biological target: Peroxisome proliferator-activated receptor gamma (Homo sapiens) (UniProt P37231); experiment: qHTS assay for small molecule agonists of peroxisome proliferator-activated receptor gamma signaling (AID 588536; active means well fitted curve in the direction sought with a large enough effect in the signal ratio, with a control signal flat, not every such curve was filed as active; inconclusive means small, poorly fitted or top-dose-only effect, or effect the other way, or a change in a side signal; inactive means no such curve, though single readings can be large or run the other way; the % refers to the signal ratio;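 further: 0% = DMSO basal wells and 100% = rosiglitazone at 2 µM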); details: HEK293 PPARg-UAS-bla, beta-lactamase ratio, 16 h; activation: at 76.7 µM (top of the series), percent of rosiglitazone response, DMSO as zero
# Outline: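 GeneBLAzer PPAR-gamma-UAS-bla HEK293 cells in 1% charcoal/dextran-treated FBS medium were treated 16 h at 37 C with compounds. Beta-lactamase activity was read by CCF4 ratio (460/530 nm). Response was normalized to 2 uM rosiglitazone (100%) and DMSO, then Hill-fitted for EC50 and efficacy.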
# [7] = biological target: Peroxisome proliferator-activated receptor gamma (Homo sapiens) (UniProt P37231); experiment: qHTS assay for small molecule antagonists of peroxisome proliferator-activated receptor gamma signaling (AID 588537; active means well fitted inhibition curve with a large enough effect in the signal ratio, with a control signal flat, not every such curve was filed as active; inconclusive means small, poorly fitted or top-dose-only effect, or effect the other way, or a change in a side signal; the % refers to the signal ratio;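 further: reporter cells co-stimulated with 50 nM rosiglitazone agonist during compound treatment; % of control where 0% means no effect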); details: HEK293 PPARg-UAS-bla, beta-lactamase ratio, antagonist mode; activity, negative = inhibition: at 76.8 µM (top of the series)
# Outline: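 Inhibitors of agonist-stimulated UAS-bla reporter activity were sought in HEK293 cells; rosiglitazone (50 nM) defined full signal and DMSO baseline. Curves fitted to Hill model gave IC50 and efficacy.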
# [8] = biological target: Retinoic acid receptor RXR-alpha (Homo sapiens) (UniProt P19793); experiment: qHTS assay for small molecule agonists of retinoid X receptor alpha signaling (AID 588544; calls by dose curve;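 further: 0% = DMSO basal wells and 100% = reference agonist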); details: HEK293T RXRa-UAS-bla, beta-lactamase reporter, 18 h; activation: at 76.7 µM (top of the series) unless noted
# [9] = biological target: Thyroid hormone receptor beta (Homo sapiens) (UniProt P10828); experiment: qHTS assay for small molecule agonists of thyroid hormone receptor beta signaling (AID 588545; calls by dose curve;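 further: 0% = DMSO only and 100% = 10 nM T3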); details: TR-UAS-bla GripTite HEK 293, beta-lactamase ratio, agonist mode, 18 h; activation: at 76.7 µM, percent of T3 response, DMSO as zero
# Outline: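 Compounds were tested as agonists in TR-UAS-bla-GripTite HEK 293 cells. After 18 hrs at 37 C, CCF4 substrate was added and fluorescence read after 2 hrs at room temperature.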
# [10] = qHTS assay to identify small molecules that stimulate interleukin-8 (IL-8) secretion (AID 651758; active means well fitted activation curve with a large enough effect in the signal ratio; inconclusive means small, poorly fitted or top-dose-only effect, or effect the other way, or a change in a side signal; the % refers to the signal ratio; further: 0% is about no effect); details: HTRF ratio (665/615); activation: at 92.2 µM (top of the series)
# Outline: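 Secreted IL-8 measured by TR-FRET sandwich (cryptate and XL665 antibodies) from THP-1 cells exposed to compound overnight (16 hrs, 37 C).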
# [11] = Cell Viability - Hek293 (AID 427;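 active means compounds whose dose-response curve shows a full or clear partial loss of cell viability, called from curve shape rather than a numeric limit; inconclusive means weak partial curves or an effect only at the top dose; inactive means no dose-dependent loss of viability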;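 further: potency means the concentration at half of the fitted maximal effect; cells exposed to compound for 40 hours at 37 °C before reading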); details: qHTS
# Outline: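 HEK293 cells in complete medium were exposed to compound for 40 hr at 37 °C, then cellular ATP was read by CellTiter-Glo luminescence. Data were normalized to DMSO (basal) and 100 uM tamoxifen (100% inhibition), and AC50 came from Hill fits.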
# [12] = Cell Viability - Renal Proximal Tubule (AID 545); details: renal proximal tubule cells viability, primary cells of rat origin; activity change, negative = cytotoxicity: at 91.7 µM (top of the series);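 further: 0% = DMSO only and -100% = 100 µM tamoxifen; nearly all actives have a fitted effect of over 40% in size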
# Outline: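 Rat renal proximal tubule primary cells, 1000/well, exposed to compounds for 40 hr at 37 °C in complete medium; cellular ATP read by CellTiter-Glo luminescence. AC50 from concentration-response fitted with standard Hill equation.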
# [13] = Cell Viability - LYMP2-003 (AID 965); details: LYMP2-003 lymphoblastoid cell viability; series mostly up to 92.2 µM;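 further: potency means the concentration at half of the fitted maximal effect; cells exposed to compounds for 24 h before reading; nearly all actives have a fitted effect of over 50% in size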
# Outline: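 Human lymphoblastoid LYMP2-003 cells, 2500/well, exposed to compounds for 24 h at 37 C in complete medium. Viability read as intracellular ATP by CellTiter-Glo luminescence; AC50 from Hill-equation fits of qHTS concentration-response data.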
# [14] = Cell Viability - LYMP2-019 (AID 973); details: LYMP2-019 lymphoblastoid cell line viability; series mostly up to 92.2 µM;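 further: 0% = DMSO alone and full effect = 92 µM tetraoctylammonium bromide; nearly all actives have a fitted effect of over 55% in size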
# Outline: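 Cells plated at 2500/well and allowed 5 hr at 37 C before compound addition. After 24 hr incubation, CellTiter-Glo reagent was added, plates sat 30 min at room temperature, and luminescence was recorded.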
# [15] = biological target: Estrogen receptor (Homo sapiens) (UniProt P03372); experiment: qHTS assay for small molecule antagonists of estrogen receptor alpha signaling (AID 588513; active means well fitted curve in the direction sought with a large enough effect in the signal ratio, with a control signal flat, not every such curve was filed as active; inconclusive means small, poorly fitted or top-dose-only effect, or effect the other way, or a change in a side signal; inactive means no such curve, though single readings can be large or run the other way; the % refers to the signal ratio; further: on the % scale 0 is the no-effect control and ±100 the full control effect); details: ER-alpha-UAS-bla HEK293, beta-lactamase ratio, antagonist mode; activity, negative = inhibition: at 76.9 µM (top of the series) unless noted
# Outline: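 ER-alpha-UAS-bla GripTite HEK 293 cells in 2% charcoal/dextran-treated FBS medium; compounds titrated (1:2, duplicate), then stimulated with 0.5 nM 17-beta-estradiol for 18 h at 37C. CCF4 beta-lactamase fluorescence; Hill-fit IC50 and efficacy.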
# [16] = biological target: Glucocorticoid receptor (Homo sapiens) (UniProt P04150); experiment: qHTS assay for small molecule agonists of glucocorticoid receptor signaling (AID 588532; active means well fitted curve in the direction sought with a large enough effect in the signal ratio, with a control signal flat; inconclusive means small, poorly fitted or top-dose-only effect, or a change in a side signal; inactive means no such curve, though single readings can be large or run the other way; the % refers to the signal ratio; further: potency means the concentration at half of the fitted maximal effect); details: HeLa MMTV-bla, beta-lactamase ratio, agonist, 18 h; activation: hits give high values, percent of dexamethasone control, DMSO zero
# Outline: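 Agonist-mode qHTS: GRE-driven beta-lactamase in HeLa cells exposed 18 h to titrated compounds (up to 92 uM), then CCF4 ratio read after 2 h at RT; Hill-fitted EC50, efficacy relative to 0.1 uM dexamethasone.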
# [17] = Cell Viability - HepG2 (AID 433; calls by dose curve;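 further: potency means the concentration at half of the fitted maximal effect; potency for ATP loss meaning cytotoxicity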); details: qHTS
# Outline: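 HepG2 cells, 1500 per well, treated 40 hr at 37 °C in complete medium; viability from intracellular ATP by CellTiter-Glo luminescence. Normalized to DMSO and 100 uM tamoxifen; AC50 from Hill fit of qHTS concentration-response.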
# [18] = Cell Viability - LYMP2-005 (AID 967); details: LYMP2-005 lymphoblastoid cell viability; series mostly up to 92.2 µM; further: potency means the concentration at half of the fitted maximal effect
# Outline: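 Human lymphoblastoid LYMP2-005 cells, 2,500 per well in complete medium, rested 5 h at 37C then compound-treated 24 h at 37C. Intracellular ATP read by CellTiter-Glo luminescence after 30 min at room temperature; AC50 from Hill-equation fits of concentration-response data.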
# [19] = biological target: Vitamin D3 receptor (Homo sapiens) (UniProt P11473); experiment: qHTS assay for small molecule antagonists of vitamin D receptor signaling (AID 588541; calls by dose curve;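 further: receptor activated by calcitriol during compound treatment; on the % scale 0 is the no-effect control and ±100 the full control effect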); details: HEK293T VDR-UAS-bla, beta-lactamase ratio, antagonist mode; activity change, negative = inhibition: at 76.7 µM (top of the series)
# [20] = biological target: Retinoic acid receptor RXR-alpha (Homo sapiens) (UniProt P19793); experiment: qHTS assay for small molecule antagonists of retinoid X receptor alpha signaling (AID 588546; active means well fitted inhibition curve with a large enough effect in the signal ratio, with a control signal flat, not every such curve was filed as active; inconclusive means small, poorly fitted or top-dose-only effect, or effect the other way, or a change in a side signal; inactive means no such curve, though single readings can be large or run the other way; the % refers to the signal ratio;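 further: cells stimulated with 9-cis-retinoic acid as agonist; on the % scale 0 is the no-effect control and ±100 the full control effect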); details: HEK293T RXRa-UAS-bla, beta-lactamase ratio, antagonist mode
# Outline: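 Beta-lactamase reporter inhibition, read as CCF4 fluorescence ratio (ex 405, em 460/530 nm) after 2 h at RT. HEK293T UAS-bla cells, 2500/well, were stimulated with 9-cis-RA at 500 or 100 nM final alongside test compound for 18 h at 37 C.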
# [21] = qHTS assay for small molecule agonists of the antioxidant response element (ARE) signaling pathway (AID 651741; active means well fitted activation curve with a large enough effect in the signal ratio; inconclusive means small, poorly fitted or top-dose-only effect, or effect the other way, or a change in a side signal; the % refers to the signal ratio; further: % of control where 0% means no effect); details: HepG2 ARE-bla reporter, beta-lactamase FRET ratio, 16 h; activation: at 96 µM (top of the series) unless noted
# Outline: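 Seeding 2,000 ARE-bla HepG2 cells per well preceded a 5 h incubation at 37 C/5% CO2 and a 16 h compound exposure at 37 C. Beta-lactamase reporter activity was then quantified by fluorescence after 2 h with LiveBLAzer B/G FRET substrate.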
# Tags describe the fitted curve by direction and shape or compound fluorescence and quenching.
# Sequence of UniProt Q03181 (Q03181 whole entry, looked up): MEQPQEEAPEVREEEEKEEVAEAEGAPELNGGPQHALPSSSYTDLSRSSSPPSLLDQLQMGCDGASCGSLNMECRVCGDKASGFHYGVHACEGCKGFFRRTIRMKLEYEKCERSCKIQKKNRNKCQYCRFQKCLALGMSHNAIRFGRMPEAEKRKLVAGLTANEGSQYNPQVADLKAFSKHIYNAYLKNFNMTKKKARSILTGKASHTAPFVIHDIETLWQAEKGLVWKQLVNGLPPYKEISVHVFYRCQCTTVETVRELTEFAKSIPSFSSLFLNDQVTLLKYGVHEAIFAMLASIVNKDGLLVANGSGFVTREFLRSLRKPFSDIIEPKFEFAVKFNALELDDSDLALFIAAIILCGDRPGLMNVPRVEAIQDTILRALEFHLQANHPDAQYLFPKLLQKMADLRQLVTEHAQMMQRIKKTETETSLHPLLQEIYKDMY
# Sequence of UniProt P19793 (P19793 whole entry, looked up): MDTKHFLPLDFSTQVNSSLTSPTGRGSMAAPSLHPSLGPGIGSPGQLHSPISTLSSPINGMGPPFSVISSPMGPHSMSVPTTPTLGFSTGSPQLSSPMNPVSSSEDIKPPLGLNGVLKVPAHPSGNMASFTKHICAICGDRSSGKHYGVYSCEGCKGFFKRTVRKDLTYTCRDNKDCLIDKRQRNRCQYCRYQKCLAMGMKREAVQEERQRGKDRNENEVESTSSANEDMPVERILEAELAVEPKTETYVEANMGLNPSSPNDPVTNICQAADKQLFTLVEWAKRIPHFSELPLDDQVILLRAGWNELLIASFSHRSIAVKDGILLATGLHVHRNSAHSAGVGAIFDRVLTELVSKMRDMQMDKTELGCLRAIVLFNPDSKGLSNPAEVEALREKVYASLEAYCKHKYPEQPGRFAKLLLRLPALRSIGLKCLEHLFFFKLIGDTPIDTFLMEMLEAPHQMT
# Sequence of UniProt P10828 (P10828 whole entry, looked up): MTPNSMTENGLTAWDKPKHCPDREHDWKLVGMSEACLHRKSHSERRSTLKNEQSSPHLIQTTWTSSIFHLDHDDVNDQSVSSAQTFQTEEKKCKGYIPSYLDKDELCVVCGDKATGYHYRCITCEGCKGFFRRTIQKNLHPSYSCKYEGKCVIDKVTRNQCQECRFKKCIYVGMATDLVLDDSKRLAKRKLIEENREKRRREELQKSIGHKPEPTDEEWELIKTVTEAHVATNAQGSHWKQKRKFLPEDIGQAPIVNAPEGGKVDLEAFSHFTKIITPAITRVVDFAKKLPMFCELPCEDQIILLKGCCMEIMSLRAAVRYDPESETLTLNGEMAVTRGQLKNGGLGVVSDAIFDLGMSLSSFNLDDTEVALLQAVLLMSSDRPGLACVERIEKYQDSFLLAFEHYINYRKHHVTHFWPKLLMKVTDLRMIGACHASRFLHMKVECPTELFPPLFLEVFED
# Sequence of UniProt P03372 (P03372 whole entry, looked up): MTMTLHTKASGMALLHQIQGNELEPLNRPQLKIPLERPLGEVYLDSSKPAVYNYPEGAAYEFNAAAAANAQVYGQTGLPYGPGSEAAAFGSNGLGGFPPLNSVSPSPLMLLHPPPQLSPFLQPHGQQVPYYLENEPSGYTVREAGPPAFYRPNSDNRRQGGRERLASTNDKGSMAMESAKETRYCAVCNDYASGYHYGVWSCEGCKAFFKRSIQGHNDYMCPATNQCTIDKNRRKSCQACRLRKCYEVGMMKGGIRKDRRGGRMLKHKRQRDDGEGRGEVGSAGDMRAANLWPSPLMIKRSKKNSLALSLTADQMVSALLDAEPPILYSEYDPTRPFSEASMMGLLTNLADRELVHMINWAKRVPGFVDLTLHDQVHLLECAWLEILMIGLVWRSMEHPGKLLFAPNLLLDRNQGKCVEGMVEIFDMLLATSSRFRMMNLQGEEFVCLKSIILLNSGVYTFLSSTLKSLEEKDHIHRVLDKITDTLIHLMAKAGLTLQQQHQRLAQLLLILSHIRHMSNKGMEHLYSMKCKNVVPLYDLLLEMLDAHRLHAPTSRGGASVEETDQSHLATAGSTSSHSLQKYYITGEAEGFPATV
compound,measurement,setting,value
Brc1cc(Oc2cc(Br)c(Br)c(Br)c2Br)c(Br)c(Br)c1Br,Potency,[1],inactive: > 92 µM
same,"activity change, negative = cytotoxicity",[2],inconclusive: -38%
same,Potency,[3],inactive
same,Potency,[4],"inconclusive: 63.1 µM [activator, single point]"
same,Potency,[5],inactive
same,activation,[6],inconclusive: 4.6% and inconclusive: 2.95%
same,Potency,[7],inactive
same,activation,[8],inconclusive: -20.4%
same,activation,[9],inconclusive: -19.6%
same,activation,[10],inconclusive: 21.6%
Cc1ccccc1C=O,Potency,[11],inactive: > 92 µM
same,"activity change, negative = cytotoxicity",[12],inactive: -3.56%
same,Potency,[13],"inconclusive: 79.4 µM [rising, single point]"
same,Potency,[14],inactive
same,Potency,[15],inactive
same,Potency,[16],"inconclusive: 0.0178 µM [side channel, falling, full curve, poor fit]"
same,"activity, negative = inhibition",[7],inconclusive: -25.6%
same,Potency,[10],inactive
CC(C)N(C)C,Potency,[17],inactive: > 92 µM
same,Potency,[18],"inconclusive: 3.98 µM [cytotoxic, full curve, poor fit]"
same,Potency,[14],inactive
same,"activity change, negative = inhibition",[19],inconclusive: -10.8%
same,max response,[20],inactive: 11.2%
same,Potency,[21],inactive
same,Potency,[10],inactive
